About 120 (0.25%) of roughly 48,000 compounds were called active. About 4% were inconclusive and are not listed. Calls follow the shape of the dose curve; as a rule, active = well fitted activation curve with a large enough effect; inconclusive = small, poorly fitted or top-dose-only effect, or another doubt; inactive = no such curve, though single readings can be large or run the other way. Some of the results follow.
experiment: Primary qHTS for Identification of Small Molecule Activators of Huntingtin-Antisense Promoter Activity; details: HEK293 HTT-AS promoter firefly luciferase reporter (activity 0% = vehicle and -100% = no light), 24 h; series mostly up to 57.5 µM; activity change, positive = activation: at the top concentration; also: nearly all actives have a fitted effect of over 55% in size
How it was run: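 HEK293 luciferase promoter-reporter cells (2,500/well) plated 24 h, then compounds added at up to 57.5 uM final for 24 h at 37 °C. Firefly luminescence by Dual-Glo, normalized to vehicle (0%) and zero RLU (-100%).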
Potency is read from the fitted curve at half-maximal effect.

Structure (SMILES)	activity change, positive = activation	Potency
Cc1ccc(Cl)cc1-n1ncc2c(N3CCCCCC3)ncnc21	inactive: -37.9%	–
CCN(Cc1ccccc1)c1ncnc2c1nnn2C	inactive: 5.38%	–
COc1ccc(OC)c(/C=C/C(=O)Nc2ccc(C(=O)OCCC(C)C)cc2)c1	inactive: -12.9%	–
O=S(=O)(NCc1ccc(Cl)cc1)c1ccc(-c2cnc(C3CC3)o2)cc1	inactive: -0.332%	–
Cc1ccccc1CN1C(=O)c2ccccc2Sc2ccc(C(=O)NC3CCCC3)cc21	inactive: -20.4%	–
CCCN(C(=O)CCc1nc(-c2ccc(OC)cc2)no1)c1ccccc1F	inactive: -22.1%	–
CSc1ncc(C(=O)N2CCN(c3cc(Cl)ccc3C)CC2)c(C)n1	inactive: -32.2%	–
COc1cccc2cc(-c3nnc(Nc4c(F)cccc4F)s3)c(=O)oc12	–	active: 1000 nM
Cc1oc(-c2ccccc2F)nc1CS(=O)(=O)CC(=O)NCCc1ccc(Cl)cc1	inactive: -23.4%	–
COc1cc(-c2nc(Cn3nnc(C(=O)Nc4ccc(C)cc4C)c3C)c(C)o2)cc(OC)c1OC	inactive: -2.05%	–
COc1ccc(N2CCN(c3oc(-c4ccc(COc5cccc(C)c5)o4)nc3C#N)CC2)cc1	inactive: -19.9%	–
COc1ccc(CC(=O)NCCc2csc3nc(-c4ccccc4F)nn23)cc1	inactive: -18%	–
Cc1ccc(NC(=O)CN(C)S(=O)(=O)c2ccc3[nH]c4c(c3c2)CCCC4)c(Cl)c1	inactive: -16%	–
COc1ccc(NC(=O)Cn2ncc3c2-c2ccccc2OC3)cc1Cl	inactive: -30.7%	–
Cc1cccc(NC(=O)c2sc3nc(N4CCOCC4)c4c(c3c2N)CC(C)(C)OC4)c1	inactive: 21.7%	–
COc1ccccc1C(=O)Nc1ccc(OCc2cc(=O)n3ccsc3n2)cc1	inactive: -0.294%	–
O=C(CSc1nc2c([nH]c3ccccc32)c(=O)n1-c1ccccc1)Nc1ccc2c(c1)OCCO2	inactive: -22.5%	–
Cc1ccc(C)c2sc(N3CCN(C(=O)C(C)(C)C)CC3)nc12	inactive: -29.7%	–
CC(=O)N1c2ccc(S(=O)(=O)NCCC(=O)Nc3ccc(Br)c(C)c3)cc2CC1C (stereo unspecified)	inactive: -67.3%	–
CC1=C(C(=O)Nc2ccc(C)cc2Cl)C2(CCCCCC2)OC1=O	inactive: -14.4%	–
CCN(CC)c1sc(S(=O)(=O)c2ccccc2)nc1S(=O)(=O)c1ccc(C)cc1	inactive: -27.6%	–

Structure (SMILES)	activity change, positive = activation	Potency
CCC(=O)c1cc2c(cc1NC(=O)c1ccccc1F)OCCO2	inactive: -11.4%	–
CCOc1ccc(CCNC(=O)c2ccc(-n3c(C)cc4c3CCC(C)C4)cc2)cc1OCC (stereo unspecified)	inactive: 2.14%	–
CCOc1ccc(NC(=O)c2oc3ccccc3c2NC(=O)c2cc(C)cc(C)c2)cc1	inactive: 4.8%	–
COc1ccc(CCNC(=O)Cn2ncc3c(=O)oc4ccccc4c32)c(OC)c1	inactive: -1.41%	–
COc1ccc(CC(=O)NCc2ccc3c(c2)CCN3C(=O)c2ccc(Cl)cc2)cc1	inactive: -1.3%	–
CCOc1ccc(CCNC(=O)CCSCc2ccc(Cl)cc2)cc1OCC	inactive: -18.6%	–
Cc1cccc(Cc2c(C)nc3nc(SCC(=O)NCc4ccccc4)nn3c2C)c1	inactive: -32%	–
CC(C)Oc1ccc(CNC(=O)c2cccc(NC(=O)N3CCSc4ncccc43)c2)cc1	inactive: -30.2%	–
CCC(=O)N1CCc2cc(Br)cc(S(=O)(=O)N3CCCC(C(=O)Nc4cccc(F)c4)C3)c21 (stereo unspecified)	inactive: -33.4%	–
CCOC(=O)CSc1nc2sc3c(c2c(=O)n1-c1ccccc1)CCC(C(C)(C)C)C3 (stereo unspecified)	inactive: -14.3%	–
O=C(Nc1cccc(Br)c1)N1CCC(CN2CCCCCC2)CC1	inactive: -1.32%	–
COc1cccc(CNC(=O)CN(c2ccc(C(C)C)cc2)S(=O)(=O)c2c(C)noc2C)c1	inactive: -37.4%	–
CCOC(=O)c1sc(NC(=O)c2cc3nc(-c4ccccc4)cc(C(F)(F)F)n3n2)c(C(=O)OCC)c1C	inactive: -11.7%	–
Cc1cc(C)cc(Oc2c(C(F)(F)F)oc3cc(OCC(=O)NC4CCCCC4)ccc3c2=O)c1	inactive: 1.85%	–
CCOC(=O)c1cc(-c2ccccc2)n(-c2cccc(C(=O)Nc3cc(OC)cc(OC)c3)c2)c1C	inactive: -23%	–
O=C(NCc1ccc(F)cc1)c1cc(-c2ccc(Cl)cc2)n[nH]1	inactive: -9.24%	–
CCC(C)NC(=O)CCSc1nc(-c2ccc(OC)cc2)cc(C(F)(F)F)n1 (stereo unspecified)	inactive: -27.8%	–
CCc1ccc(S(=O)(=O)c2nnn3c2nc(Nc2ccc(F)cc2)c2cc(Cl)ccc23)cc1	inactive: 1.76%	–
O=C(O)c1cccc(Nc2ncnc3scc(-c4ccccc4)c23)c1	inactive: -35.8%	–
Nc1ccc(S(=O)(=O)Nc2ncccn2)cc1	inactive: 4.45%	–
Cc1ccccc1C(=O)Oc1c(Sc2ccccc2)c(C)nn1C(C)(C)C	inactive: 6.46%	–

Structure (SMILES)	activity change, positive = activation	Potency
Cc1ccc(C(=O)Nc2nnc(S(=O)(=O)N3CCc4ccccc43)s2)cc1	inactive: -11.8%	–
CCn1nc(C)c2c(-c3ccccc3)cc(=O)n(C(C)C(=O)Nc3ccc(OC)c(OC)c3)c21 (stereo unspecified)	inactive: -21.2%	–
COc1ccc(C2C=C(c3ccccc3)Nc3nc(NC(C)=O)nn32)cc1 (stereo unspecified)	inactive: -19%	–
CCOC(=O)c1ccccc1NC(=O)CN(c1ccccc1)S(=O)(=O)c1ccc(OCC)cc1	inactive: -16.7%	–
CO[C@@]1(NC(=O)C(C(=O)O)c2ccc(O)cc2)C(=O)N2C(C(=O)O)=C(CSc3nnnn3C)CO[C@@H]21 (stereo partly specified)	inactive: 7.06%	–
Cc1cccc(NC(=O)Nc2cccs2)c1C	inactive: 9.31%	–
CCCCCCc1c(C)c2c(cc(C)c3c(C)coc32)oc1=O	inactive: -2.69%	–
Cc1ccc(C)c(NC(=O)Cn2ncc3c(C)n(Cc4ccc(F)cc4)c(C)c3c2=O)c1	inactive: -10.8%	–
CC1=C(c2ccc(C)c(C)c2)S(=O)(=O)N(Cc2ccc(C(=O)NCc3ccccc3F)cc2)C1=O	inactive: -29.8%	–
N#C/C(=C\c1ccc(O)cc1)C(=O)NCC1CCCO1 (stereo unspecified)	inactive: 19.1%	–
Cc1cc(C)cc(NC(=O)Cn2nnc(-c3ccccc3F)n2)c1	inactive: -19.3%	–
O=C(CCc1cn(Cc2ccc(F)cc2)c2ccccc12)NC1CCCCC1	inactive: -25.2%	–
COc1ccc(-c2cc(C(F)(F)F)n3nc(C)c(-c4ccccc4)c3n2)cc1OC	inactive: -8.77%	–
CCOC(=O)N1CCc2c(sc3c2c(=O)n(-c2ccc(CC)cc2)c(=O)n3Cc2cccc(Cl)c2)C1	inactive: -5.89%	–
Cc1ccc(C)c(N2CCN(C(=O)C3CCC(CNS(=O)(=O)c4cccs4)CC3)CC2)c1 (stereo unspecified)	inactive: -39.9%	–
CCC1CN(C(=O)N2CCC(C(=O)NCCc3ccc(OC)c(OC)c3)CC2)c2ccccc2O1 (stereo unspecified)	inactive: -18.3%	–
Cc1ccc(CNC(=O)CSc2c(C)cnc3c2c(=O)n(C)c(=O)n3C)cc1	inactive: 9.12%	–
CCn1cc(C(=O)OCC(=O)Nc2cc(Cl)ccc2C)c(=O)c2ccc(C)nc21	inactive: -4.47%	–
Cc1ccc(NC(=O)C2CCN(S(=O)(=O)c3cccc4nsnc34)CC2)cc1	inactive: -24.6%	–
